{
  "source": "the supplement of paper PMC11417369",
  "note": "± gives the standard deviation of the averaged measurements. The list shows a part of the results.",
  "data": [
    {"test_system": "PfAP2-EXP AP2 domain (GST-tagged)", "test": "gcPBM binding intensity (ln(normalized median fluorescence intensity)); higher = stronger DNA binding", "outline": "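The highest Masliner-normalised natural-log median intensity across replicate spots of either probe orientation is reported as binding intensity. GST-tagged P. falciparum DNA-binding domains expressed in E. coli were applied for 1 h to an Agilent 4 × 180k array of primer-extended double-stranded 36-bp intergenic genomic probes plus negative controls, and bound protein was detected with Alexa488 anti-GST antibody and scanned at 488 nm.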", "values": [
      {"sequence": "CTTACACCCATATATACACACATGTATATTTTATAT [CACACA_site4462]", "gcPBM binding intensity (ln)": "8.82 ± 0.41"},
      {"sequence": "TACTCCTCAATATTATGTACATATAATAGTTATAAA [XGTACX_site8551]", "gcPBM binding intensity (ln)": "8.69 ± 0.38"},
      {"sequence": "TGTTTTATACTAAATGAACACACACCCATATATATA [CACACA_site7912]", "gcPBM binding intensity (ln)": "8.7 ± 0.46"},
      {"sequence": "TTATTTATTTATAATAGTACAATTTAATGATCTTCT [XGTACX_site4831]", "gcPBM binding intensity (ln)": "8.13 ± 0.32"},
      {"sequence": "CAATATATTTGATTTACACACTTACAATGTATATAA [CACACA_site2994]", "gcPBM binding intensity (ln)": "8.45 ± 0.33"},
      {"sequence": "CCAACATGCCCACGCACACACAAAAAAAGCATGCAT [CACACA_site4217]", "gcPBM binding intensity (ln)": "9.19 ± 0.33"},
      {"sequence": "AATAATATATATATATATATAATAAAATATAAATAG [CACACA_negctrl_site1515]", "gcPBM binding intensity (ln)": "8.52 ± 0.37"},
      {"sequence": "ATAGAAATATATATATGTACATATAGATAAATCTAT [XGTACX_site7833]", "gcPBM binding intensity (ln)": "8.32 ± 0.33"},
      {"sequence": "ATATGAAATAATAATAGTACATAAAATAATTTTACT [XGTACX_site6964]", "gcPBM binding intensity (ln)": "8.27 ± 0.28"},
      {"sequence": "ATAAATACAGATAACACACACATATATATATATATA [CACACA_site5431]", "gcPBM binding intensity (ln)": "10.1 ± 0.59"},
      {"sequence": "AAAAATAACGTAAATTGTACATGTAAAATTTTCTAT [XGTACX_site7158]", "gcPBM binding intensity (ln)": "8.47 ± 0.31"},
      {"sequence": "ATATAAATTTTTTAGAGTACTAAAATAAAATAATAT [XGTACX_site2118]", "gcPBM binding intensity (ln)": "8.37 ± 0.41"},
      {"sequence": "TTATTTATATATTCATGTACATAACATTTCATTCGA [XGTACX_site4388]", "gcPBM binding intensity (ln)": "8.59 ± 0.26"},
      {"sequence": "TTTTAAGAATAAAATTGTACACATACATGTGTTCGC [XGTACX_site438]", "gcPBM binding intensity (ln)": "8.27 ± 0.26"},
      {"sequence": "AAACAGAAGACATATACACACATACAAAAAAGTGCA [CACACA_site4699]", "gcPBM binding intensity (ln)": "8.81 ± 0.33"},
      {"sequence": "TTCTCATTCAAATTAGTGCATTTTTGTTATTACATT", "gcPBM binding intensity (ln)": "9.04 ± 0.028"},
      {"sequence": "TGTGTATATATATAATGTACATAAAGATTTATATAT [XGTACX_site5835]", "gcPBM binding intensity (ln)": "8.62 ± 0.36"},
      {"sequence": "ATACTAAAAAGTATCTGTACTTATTTTAAAAATAAA [XGTACX_site4116]", "gcPBM binding intensity (ln)": "8.32 ± 0.32"},
      {"sequence": "TTTTCTAAAATGAATTGTACTTGATTATTTAAAAAA [XGTACX_site6097]", "gcPBM binding intensity (ln)": "8.02 ± 0.4"},
      {"sequence": "TAAAAAATGAAAAAGCGTACATGTTTTCTTATATTA [XGTACX_site1722]", "gcPBM binding intensity (ln)": "8.38 ± 0.33"},
      {"sequence": "TGTATCATAAAAATAACACACGTATTTTTTTTTATT [CACACA_site1050]", "gcPBM binding intensity (ln)": "8.36 ± 0.47"},
      {"sequence": "TAAATAATTAAAATATGTACTGAAATGTAATTATTT [XGTACX_site5894]", "gcPBM binding intensity (ln)": "8.47 ± 0.51"},
      {"sequence": "TATTTACTTATATGCACACATAAATGTGAATTATGG [CACACA_site3777]", "gcPBM binding intensity (ln)": "8.34 ± 0.23"},
      {"sequence": "ATATAATAAAATGACACACGCATATATATATATATA [CACACA_site2789]", "gcPBM binding intensity (ln)": "10.2 ± 0.51"},
      {"sequence": "TTTCTTTTTAAATATATACACACCGTGGGTACATAT [CACACA_site9102]", "gcPBM binding intensity (ln)": "8.53 ± 0.49"},
      {"sequence": "TTATATTTATTTATTTGTACATATTTTTTTTTATAT [XGTACX_site1669]", "gcPBM binding intensity (ln)": "8.75 ± 0.34"},
      {"sequence": "ATAAAATATTAATTTTAAATTAATCAATATATATAA [GTGCAC_negctrl_site474]", "gcPBM binding intensity (ln)": "8.07 ± 0.44"},
      {"sequence": "TCATATCTTTTGAGCACACATATATATATATAAAGG [CACACA_site3338]", "gcPBM binding intensity (ln)": "8.71 ± 0.34"},
      {"sequence": "ATTAATATTCTATATGCATGTGAACCATGGTATATA [TGCATGCA_site430]", "gcPBM binding intensity (ln)": "8.7 ± 0.32"},
      {"sequence": "ATATATATATATATATGTACTTATTTATCGTATTAT [XGTACX_site3520]", "gcPBM binding intensity (ln)": "10.1 ± 0.5"},
      {"sequence": "ATTTTTTCTTATAATGCATGTAGAAAACCGTACAGC [TGCATGCA_site57]", "gcPBM binding intensity (ln)": "8.77 ± 0.32"},
      {"sequence": "AGGCTCAAATCTAGGTGTACCATTATCGTTGTATCT [XGTACX_site4730]", "gcPBM binding intensity (ln)": "8.6 ± 0.47"},
      {"sequence": "TATGTGTTTATTTGGTGTACATACTAATAAATATAC [XGTACX_site1682]", "gcPBM binding intensity (ln)": "8.68 ± 0.11"},
      {"sequence": "CCTAAATTATATTATGCACACTTAAAAATATATTTA [CACACA_site5861]", "gcPBM binding intensity (ln)": "8.615 ± 0.007"},
      {"sequence": "ATAAATGGAAACAAAAGTACTAAAAAAAAAAAATAA [XGTACX_site1510]", "gcPBM binding intensity (ln)": "8.64 ± 0.41"},
      {"sequence": "AATAATATAGATTGTACACACAAAATGGGAAAAAAA [CACACA_site1886]", "gcPBM binding intensity (ln)": "9 ± 0.41"},
      {"sequence": "ACGGGTCAATATATGCGTACTTATTTAAATAATTAA [XGTACX_site1518]", "gcPBM binding intensity (ln)": "8.57 ± 0.42"},
      {"sequence": "ATTATGTATATAAATTAACACACATATGTGGTTAAT [CACACA_site9028]", "gcPBM binding intensity (ln)": "8.36 ± 0.44"},
      {"sequence": "TATATATGTATGTATTGTACAATTAAAAATATGTAT [XGTACX_site3990]", "gcPBM binding intensity (ln)": "8.55 ± 0.39"},
      {"sequence": "AAAAAAAAAAAAGATACACACAAAAATGAATATATA [CACACA_site2099]", "gcPBM binding intensity (ln)": "8.2 ± 0.47"},
      {"sequence": "ATATATATATATATATGTACATATATATATAATTTT [XGTACX_site4146]", "gcPBM binding intensity (ln)": "9.96 ± 0.3"},
      {"sequence": "ATATATATATATAACTGTACTTATATATACATTTTA [XGTACX_site8605]", "gcPBM binding intensity (ln)": "9.92 ± 0.33"},
      {"sequence": "TAAATAAATAAAAAAACACACATATATATATATATA [CACACA_site4029]", "gcPBM binding intensity (ln)": "10.2 ± 0.32"},
      {"sequence": "ATCAAGCACCAACACACACACACACCCCCACCCACA [CACACA_site370]", "gcPBM binding intensity (ln)": "9.43 ± 0.4"},
      {"sequence": "TTTTATCACATTATTGCACACACATAAAGAAAAAAA [CACACA_site8922]", "gcPBM binding intensity (ln)": "8.63 ± 0.27"},
      {"sequence": "TTTATGTAGGAACTAACACACATTGTAAGATTCAGA [CACACA_site1998]", "gcPBM binding intensity (ln)": "8.44 ± 0.38"},
      {"sequence": "GGAACTTTTGGAGGTGCATGCGGAGCAATCTTTTCA [TGCATGCA_site454]", "gcPBM binding intensity (ln)": "9.12 ± 0.21"},
      {"sequence": "CATATCAATAATATCACACATATATGTGATTTTATT [CACACA_site5053]", "gcPBM binding intensity (ln)": "8.35 ± 0.28"},
      {"sequence": "TTATTAATTTATAAATGTACGAATTTTTTATTTAAC [XGTACX_site7605]", "gcPBM binding intensity (ln)": "8.31 ± 0.42"},
      {"sequence": "CCCCTTAATTAAAGGAGTACTATTTGTGAATAATAT [XGTACX_site4715]", "gcPBM binding intensity (ln)": "9.2 ± 0.39"},
      {"sequence": "TATTAATAATTAAGTTGTACATTAATTAATATACTG [XGTACX_site6994]", "gcPBM binding intensity (ln)": "8.24 ± 0.31"},
      {"sequence": "TTTAATATTAATAATTGTACATTTTCATAAATACGC [XGTACX_site2837]", "gcPBM binding intensity (ln)": "8.4 ± 0.36"},
      {"sequence": "TTTAAACCTTAATATTGTACGCAAAAAAAAAAAGAA [XGTACX_site3757]", "gcPBM binding intensity (ln)": "8.67 ± 0.41"},
      {"sequence": "AGGAAAAAATCGAGTAGTACACATTTAGAAATATAA [XGTACX_site8019]", "gcPBM binding intensity (ln)": "8.74 ± 0.43"},
      {"sequence": "AAAATATAAATTCATGTGCACATATATATTTTGTTA [GTGCAC_site9782]", "gcPBM binding intensity (ln)": "8.71 ± 0.28"},
      {"sequence": "ATATCACATATATATATATATATATATATATATATA [XGTACX_negctrl_site463]", "gcPBM binding intensity (ln)": "9.95 ± 0.61"},
      {"sequence": "AACAAGGCCCGGTACTGTACATTTTTTCATAACATT [XGTACX_site6134]", "gcPBM binding intensity (ln)": "8.64 ± 0.52"}
    ]}
  ]
}
